Measured values taken from the supplement of paper PMC8728848.
The other results are listed elsewhere or left out.

Tests used:
Assay in all cases: glycan array binding signal (z-score within array); higher = stronger binding
Settings in all cases: glycan notation: IUPAC condensed, linker removed; mutation: E41G
[1] = target: GlcNAc(a1-6)Gal(b1-4)GlcNAc
In short: (§1)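 Columns mapping to the same glycan were averaged after glycan names were converted to IUPAC-condensed notation. The data come from 3228 arrays in the Consortium for Functional Glycomics database, limited to those with an available protein sequence. Binding is reported as a within-array Z-score averaged across arrays of one protein sequence and across linkers.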

[2] = target: GlcNAc(b1-2)Gal(b1-3)GalNAc
In short: as §1

[3] = target: GlcNAc(b1-2)Man(a1-3)[GlcNAc(b1-2)Man(a1-6)]Man(b1-4)GlcNAc(b1-4)GlcNAc
In short: as §1

[4] = target: GlcNAc(b1-2)Man(a1-3)[GlcNAc(b1-2)Man(a1-6)]Man(b1-4)GlcNAc(b1-4)[Fuc(a1-6)]GlcNAc
In short: as §1

[5] = target: GlcNAc(b1-2)Man(a1-3)[GlcNAc(b1-4)][GlcNAc(b1-2)Man(a1-6)]Man(b1-4)GlcNAc(b1-4)GlcNAc
In short: as §1

[6] = target: GlcNAc(b1-2)Man(a1-3)[GlcNAc(b1-4)][GlcNAc(b1-2)Man(a1-6)]Man(b1-4)GlcNAc(b1-4)[Fuc(a1-6)]GlcNAc
In short: as §1

[7] = target: GlcNAc(b1-2)[GlcNAc(b1-4)]Man(a1-3)[GlcNAc(b1-2)Man(a1-6)]Man(b1-4)GlcNAc(b1-4)GlcNAc
In short: as §1

[8] = target: GlcNAc(b1-2)[GlcNAc(b1-4)]Man(a1-3)[GlcNAc(b1-4)][GlcNAc(b1-2)Man(a1-6)]Man(b1-4)GlcNAc(b1-4)GlcNAc
In short: as §1

[9] = target: GlcNAc(b1-2)[GlcNAc(b1-4)]Man(a1-3)[GlcNAc(b1-4)][GlcNAc(b1-2)[GlcNAc(b1-6)]Man(a1-6)]Man(b1-4)GlcNAc(b1-4)GlcNAc
In short: as §1

[10] = target: GlcNAc(b1-2)[GlcNAc(b1-4)]Man(a1-3)[GlcNAc(b1-4)][GlcNAc(b1-2)[GlcNAc(b1-6)]Man(a1-6)]Man(b1-4)GlcNAc(b1-4)[Fuc(a1-6)]GlcNAc
In short: as §1

[11] = target: GlcNAc(b1-2)[GlcNAc(b1-6)]Man(a1-6)[GlcNAc(b1-2)Man(a1-3)]Man(b1-4)GlcNAc(b1-4)GlcNAc
In short: as §1

[12] = target: GlcNAc(b1-2)[GlcNAc(b1-6)]Man(a1-6)[GlcNAc(b1-2)Man(a1-3)]Man(b1-4)GlcNAc(b1-4)[Fuc(a1-6)]GlcNAc
In short: as §1

[13] = target: GlcNAc(b1-2)[GlcNAc(b1-6)]Man(a1-6)[GlcNAc(b1-4)][GlcNAc(b1-2)Man(a1-3)]Man(b1-4)GlcNAc(b1-4)GlcNAc
In short: as §1

GlcNAc(b1-3)Fuc = target: GlcNAc(b1-3)Fuc
In short: as §1

GlcNAc(b1-3)Gal = target: GlcNAc(b1-3)Gal
In short: as §1

[14] = target: GlcNAc(b1-3)Gal(b1-3)GalNAc
In short: as §1

GlcNAc(b1-3)Gal(b1-4)Glc = target: GlcNAc(b1-3)Gal(b1-4)Glc
In short: as §1

[15] = target: GlcNAc(b1-3)Gal(b1-4)GlcNAc
In short: as §1

[16] = target: GlcNAc(b1-3)Gal(b1-4)GlcNAc(b1-2)Man(a1-3)[GlcNAc(b1-3)Gal(b1-4)GlcNAc(b1-2)Man(a1-6)]Man(b1-4)GlcNAc(b1-4)GlcNAc
In short: as §1

[17] = target: GlcNAc(b1-3)Gal(b1-4)GlcNAc(b1-2)Man(a1-3)[GlcNAc(b1-3)Gal(b1-4)GlcNAc(b1-2)Man(a1-6)]Man(b1-4)GlcNAc(b1-4)[Fuc(a1-6)]GlcNAc
In short: as §1

[18] = target: GlcNAc(b1-3)Gal(b1-4)GlcNAc(b1-2)[GlcNAc(b1-3)Gal(b1-4)GlcNAc(b1-6)]Man(a1-6)[GlcNAc(b1-3)Gal(b1-4)GlcNAc(b1-2)Man(a1-3)]Man(b1-4)GlcNAc(b1-4)GlcNAc
In short: as §1

[19] = target: GlcNAc(b1-3)Gal(b1-4)GlcNAc(b1-3)Gal(b1-4)GlcNAc
In short: as §1

[20] = target: GlcNAc(b1-3)Gal(b1-4)GlcNAc(b1-3)Gal(b1-4)GlcNAc(b1-2)Man(a1-3)[GlcNAc(b1-3)Gal(b1-4)GlcNAc(b1-3)Gal(b1-4)GlcNAc(b1-2)Man(a1-6)]Man(b1-4)GlcNAc(b1-4)GlcNAc
In short: as §1

[21] = target: GlcNAc(b1-3)Gal(b1-4)GlcNAc(b1-3)Gal(b1-4)GlcNAc(b1-2)Man(a1-3)[GlcNAc(b1-3)Gal(b1-4)GlcNAc(b1-3)Gal(b1-4)GlcNAc(b1-2)Man(a1-6)]Man(b1-4)GlcNAc(b1-4)[Fuc(a1-6)]GlcNAc
In short: as §1

[22] = target: GlcNAc(b1-3)Gal(b1-4)GlcNAc(b1-3)Gal(b1-4)GlcNAc(b1-2)[GlcNAc(b1-3)Gal(b1-4)GlcNAc(b1-3)Gal(b1-4)GlcNAc(b1-6)]Man(a1-6)[GlcNAc(b1-3)Gal(b1-4)GlcNAc(b1-3)Gal(b1-4)GlcNAc(b1-2)Man(a1-3)]Man(b1-4)GlcNAc(b1-4)[Fuc(a1-6)]GlcNAc
In short: as §1

[23] = target: GlcNAc(b1-3)Gal(b1-4)GlcNAc(b1-3)Gal(b1-4)GlcNAc(b1-3)Gal(b1-4)GlcNAc(b1-2)Man(a1-3)[GlcNAc(b1-3)Gal(b1-4)GlcNAc(b1-3)Gal(b1-4)GlcNAc(b1-3)Gal(b1-4)GlcNAc(b1-2)Man(a1-6)]Man(b1-4)GlcNAc(b1-4)GlcNAc
In short: as §1

[24] = target: GlcNAc(b1-3)Gal(b1-4)GlcNAc(b1-3)Gal(b1-4)GlcNAc(b1-3)Gal(b1-4)GlcNAc(b1-2)Man(a1-3)[GlcNAc(b1-3)Gal(b1-4)GlcNAc(b1-3)Gal(b1-4)GlcNAc(b1-3)Gal(b1-4)GlcNAc(b1-2)Man(a1-6)]Man(b1-4)GlcNAc(b1-4)[Fuc(a1-6)]GlcNAc
In short: as §1

[25] = target: GlcNAc(b1-3)Gal(b1-4)GlcNAc(b1-3)Gal(b1-4)GlcNAc(b1-3)Gal(b1-4)GlcNAc(b1-2)[GlcNAc(b1-3)Gal(b1-4)GlcNAc(b1-3)Gal(b1-4)GlcNAc(b1-3)Gal(b1-4)GlcNAc(b1-6)]Man(a1-6)[GlcNAc(b1-3)Gal(b1-4)GlcNAc(b1-3)Gal(b1-4)GlcNAc(b1-3)Gal(b1-4)GlcNAc(b1-2)Man(a1-3)]Man(b1-4)GlcNAc(b1-4)[Fuc(a1-6)]GlcNAc
In short: as §1

[26] = target: GlcNAc(b1-3)Gal(b1-4)GlcNAc(b1-3)Gal(b1-4)GlcNAc(b1-3)Gal(b1-4)GlcNAc(b1-3)Gal(b1-4)GlcNAc(b1-2)Man(a1-3)[GlcNAc(b1-3)Gal(b1-4)GlcNAc(b1-3)Gal(b1-4)GlcNAc(b1-3)Gal(b1-4)GlcNAc(b1-3)Gal(b1-4)GlcNAc(b1-2)Man(a1-6)]Man(b1-4)GlcNAc(b1-4)GlcNAc
In short: as §1

[27] = target: GlcNAc(b1-3)Gal(b1-4)GlcNAc(b1-3)Gal(b1-4)GlcNAc(b1-3)Gal(b1-4)GlcNAc(b1-3)Gal(b1-4)GlcNAc(b1-2)Man(a1-3)[GlcNAc(b1-3)Gal(b1-4)GlcNAc(b1-3)Gal(b1-4)GlcNAc(b1-3)Gal(b1-4)GlcNAc(b1-3)Gal(b1-4)GlcNAc(b1-2)Man(a1-6)]Man(b1-4)GlcNAc(b1-4)[Fuc(a1-6)]GlcNAc
In short: as §1

[28] = target: GlcNAc(b1-3)Gal(b1-4)GlcNAc(b1-3)Gal(b1-4)GlcNAc(b1-3)Gal(b1-4)GlcNAc(b1-3)Gal(b1-4)GlcNAc(b1-2)[GlcNAc(b1-3)Gal(b1-4)GlcNAc(b1-3)Gal(b1-4)GlcNAc(b1-3)Gal(b1-4)GlcNAc(b1-3)Gal(b1-4)GlcNAc(b1-6)]Man(a1-6)[GlcNAc(b1-3)Gal(b1-4)GlcNAc(b1-3)Gal(b1-4)GlcNAc(b1-3)Gal(b1-4)GlcNAc(b1-3)Gal(b1-4)GlcNAc(b1-2)Man(a1-3)]Man(b1-4)GlcNAc(b1-4)[Fuc(a1-6)]GlcNAc
In short: as §1

[29] = target: GlcNAc(b1-3)Gal(b1-4)GlcNAc(b1-3)Gal(b1-4)GlcNAc(b1-3)GalNAc
In short: as §1

[30] = target: GlcNAc(b1-3)Gal(b1-4)GlcNAc(b1-3)GalNAc
In short: as §1

[31] = target: GlcNAc(b1-3)Gal(b1-4)GlcNAc(b1-3)[GlcNAc(b1-3)Gal(b1-4)GlcNAc(b1-3)]GalNAc
In short: as §1

[32] = target: GlcNAc(b1-3)Gal(b1-4)GlcNAc(b1-6)[Gal(b1-3)]GalNAc
In short: as §1

[33] = target: GlcNAc(b1-3)Gal(b1-4)GlcNAc(b1-6)[GlcNAc(b1-3)Gal(b1-3)]GalNAc
In short: as §1

[34] = target: GlcNAc(b1-3)Gal(b1-4)GlcNAc(b1-6)[GlcNAc(b1-3)]Gal(b1-4)GlcNAc
In short: as §1

GlcNAc(b1-3)GalNAc = target: GlcNAc(b1-3)GalNAc
In short: as §1

GlcNAc(b1-3)Man = target: GlcNAc(b1-3)Man
In short: as §1

[35] = target: GlcNAc(b1-3)[GlcNAc(b1-4)][GlcNAc(b1-6)]GlcNAc
In short: as §1

[36] = target: GlcNAc(b1-3)[GlcNAc(b1-6)]Gal(b1-4)GlcNAc
In short: as §1

[37] = target: GlcNAc(b1-3)[GlcNAc(b1-6)]GalNAc
In short: as §1

[38] = target: GlcNAc(b1-4)Gal(b1-4)GlcNAc
In short: as §1

GlcNAc(b1-4)GlcNAc = target: GlcNAc(b1-4)GlcNAc
In short: as §1

[39] = target: GlcNAc(b1-4)GlcNAc(b1-4)GlcNAc
In short: as §1

B1: CVN-E41G (protein)
chain: MHHHHHHENLYFQSGNFSQACYNSAIQGSVLTSTCIRTNGGYNTSSIDLNSVIGNVDGSLKWQGSNFIETCRNTQLAGSSELAAECKTRAQQFVSTKINLDDHIAAIDGTLKYE
- glycan array binding signal (z-score) [1]: -0.168
- glycan array binding signal (z-score) [2]: -0.147
- glycan array binding signal (z-score) [3]: -0.168
- glycan array binding signal (z-score) [4]: -0.097
- glycan array binding signal (z-score) [5]: -0.265
- glycan array binding signal (z-score) [6]: -0.136
- glycan array binding signal (z-score) [7]: -0.154
- glycan array binding signal (z-score) [8]: -0.148
- glycan array binding signal (z-score) [9]: -0.166
- glycan array binding signal (z-score) [10]: -0.166
- glycan array binding signal (z-score) [11]: -0.145
- glycan array binding signal (z-score) [12]: -0.158
- glycan array binding signal (z-score) [13]: -0.165
- glycan array binding signal (z-score) (GlcNAc(b1-3)Fuc): -0.135
- glycan array binding signal (z-score) (GlcNAc(b1-3)Gal): -0.178
- glycan array binding signal (z-score) [14]: -0.16
- glycan array binding signal (z-score) (GlcNAc(b1-3)Gal(b1-4)Glc): -0.169
- glycan array binding signal (z-score) [15]: -0.17
- glycan array binding signal (z-score) [16]: -0.152
- glycan array binding signal (z-score) [17]: -0.073
- glycan array binding signal (z-score) [18]: -0.026
- glycan array binding signal (z-score) [19]: -0.172
- glycan array binding signal (z-score) [20]: -0.1
- glycan array binding signal (z-score) [21]: -0.138
- glycan array binding signal (z-score) [22]: -0.107
- glycan array binding signal (z-score) [23]: -0.133
- glycan array binding signal (z-score) [24]: -0.114
- glycan array binding signal (z-score) [25]: -0.124
- glycan array binding signal (z-score) [26]: -0.067
- glycan array binding signal (z-score) [27]: 0.084
- glycan array binding signal (z-score) [28]: -0.123
- glycan array binding signal (z-score) [29]: -0.128
- glycan array binding signal (z-score) [30]: -0.168
- glycan array binding signal (z-score) [31]: -0.161
- glycan array binding signal (z-score) [32]: -0.128
- glycan array binding signal (z-score) [33]: -0.163
- glycan array binding signal (z-score) [34]: -0.149
- glycan array binding signal (z-score) (GlcNAc(b1-3)GalNAc): -0.152
- glycan array binding signal (z-score) (GlcNAc(b1-3)Man): -0.139
- glycan array binding signal (z-score) [35]: -0.16
- glycan array binding signal (z-score) [36]: -0.095
- glycan array binding signal (z-score) [37]: -0.168
- glycan array binding signal (z-score) [38]: -0.163
- glycan array binding signal (z-score) (GlcNAc(b1-4)GlcNAc): -0.13
- glycan array binding signal (z-score) [39]: -0.125
